The values that follow come from PMC4336329 (PLoS ONE, 2015).

Molecules are shown by their SMILES. The campaign covered roughly 310,000 compounds. About 14,000 (4.5%) showed an effect of 50% or more. The effect is printed as a negative number. The list shows a part of the results.
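Further: peak tail current of the secondary pulse compared with the same well before compound.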

The target of this assay is human ether-à-go-go-related gene (hERG) potassium channel (human, UniProt Q12809). The assay is described as follows: primary screen, population patch clamp on CHO cells stably expressing hERG.
human ether-à-go-go-related gene (hERG) potassium channel, sequence (Q12809 whole entry, looked up): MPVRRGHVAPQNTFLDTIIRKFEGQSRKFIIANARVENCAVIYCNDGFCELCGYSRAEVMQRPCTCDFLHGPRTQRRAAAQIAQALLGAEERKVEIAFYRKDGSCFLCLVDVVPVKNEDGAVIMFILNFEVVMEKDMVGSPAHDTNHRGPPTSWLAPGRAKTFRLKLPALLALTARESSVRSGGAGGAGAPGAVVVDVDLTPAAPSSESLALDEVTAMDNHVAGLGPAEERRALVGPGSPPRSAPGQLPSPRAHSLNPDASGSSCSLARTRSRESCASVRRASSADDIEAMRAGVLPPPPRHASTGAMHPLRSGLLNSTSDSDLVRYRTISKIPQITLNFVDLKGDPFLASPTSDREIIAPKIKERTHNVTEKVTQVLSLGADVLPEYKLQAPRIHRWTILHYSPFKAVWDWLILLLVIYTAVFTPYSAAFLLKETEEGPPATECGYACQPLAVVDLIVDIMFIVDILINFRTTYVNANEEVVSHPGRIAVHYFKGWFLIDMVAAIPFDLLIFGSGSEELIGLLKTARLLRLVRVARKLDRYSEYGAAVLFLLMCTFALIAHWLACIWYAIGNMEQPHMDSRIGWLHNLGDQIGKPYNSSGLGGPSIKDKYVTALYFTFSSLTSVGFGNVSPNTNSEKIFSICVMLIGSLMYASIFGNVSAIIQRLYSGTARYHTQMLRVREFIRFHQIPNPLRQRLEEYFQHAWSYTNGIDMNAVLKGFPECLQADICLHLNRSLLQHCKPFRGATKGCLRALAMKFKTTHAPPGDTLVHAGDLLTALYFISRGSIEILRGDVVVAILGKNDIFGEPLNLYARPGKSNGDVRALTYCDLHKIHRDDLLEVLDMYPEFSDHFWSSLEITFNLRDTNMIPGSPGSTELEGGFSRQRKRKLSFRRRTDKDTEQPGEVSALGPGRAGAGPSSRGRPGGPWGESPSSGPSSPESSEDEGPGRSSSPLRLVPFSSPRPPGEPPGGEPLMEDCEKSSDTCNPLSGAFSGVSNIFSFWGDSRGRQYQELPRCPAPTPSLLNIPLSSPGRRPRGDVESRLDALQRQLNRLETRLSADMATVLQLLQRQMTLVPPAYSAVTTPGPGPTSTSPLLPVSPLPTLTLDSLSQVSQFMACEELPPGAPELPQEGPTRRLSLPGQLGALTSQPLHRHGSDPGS
`CC(=O)Nc1ccc(C(=O)Cn2c3[n+](c4c(F)c(F)ccc42)CCCCC3)cc1.[Br-]`: the “hERG current change (%, negative = inhibition) at 10uM” value was determined as 5.76%.

Take `O=C(CSCc1ccco1)c1ccc(Cl)s1`: the “hERG current change (%, negative = inhibition) at 10uM” value worked out at 10.8%.

In the case of `COc1cc(-c2c(C#N)c(N)nc(SCc3ccncc3)c2C#N)cc(OC)c1OC`, the “hERG current change (%, negative = inhibition) at 10uM” value is -42.9%.

Take `Cc1cccc(Nc2ncnc3onc(-c4cccc(Cl)c4)c23)c1C`: the “hERG current change (%, negative = inhibition) at 10uM” value is listed as -4.32%.

As to `Cc1ccc2nc(Cl)c(/C=N/NC(=O)CN3CCOCC3)cc2c1`, the “hERG current change (%, negative = inhibition) at 10uM” value is on record as -1.59%.

For `O=C1C(NS(=O)(=O)c2ccc(Cl)cc2)=C(N2CCCCC2)C(=O)c2ccccc21`, the “hERG current change (%, negative = inhibition) at 10uM” value was -13.3%.

On to `CC1(C)NC(=O)N(CC(=O)OCC(=O)c2ccc(F)cc2)C1=O`, for which the “hERG current change (%, negative = inhibition) at 10uM” value was -3.53%.

For the molecule `CCOC(=O)c1ccc(NC(=S)N(CCCN2CCCCCC2)Cc2ccco2)cc1`, the “hERG current change (%, negative = inhibition) at 10uM” value is -73.7%.

As to `CCCN(CCO)Cc1ccc2ccccc2c1`, the “hERG current change (%, negative = inhibition) at 10uM” value is on record as -20.8%.

With `Cc1cc(C(=O)c2cnc(/N=C/N(C)C)s2)c(F)cc1Cl`, the “hERG current change (%, negative = inhibition) at 10uM” value was -41.5%.

For `CCOc1ccc(CCNC(=O)COC(=O)c2oc3ccccc3c2COC)cc1OCC`, the “hERG current change (%, negative = inhibition) at 10uM” value is reported as -14.4%.

As for `CC1(C)C/C(=N\NC(=S)Nc2ccccc2F)c2cc(O)ccc2O1`, the “hERG current change (%, negative = inhibition) at 10uM” value was -18.8%.

As to `Cc1ccc(C)c(NC(=S)/C(=C(\[O-])c2ccc(Cl)s2)[n+]2ccccc2)c1`, the “hERG current change (%, negative = inhibition) at 10uM” value is reported as -11.4%.

As to `COc1cc(C(=O)COC(=O)c2cc([N+](=O)[O-])ccc2N2CCOCC2)ccc1OC(F)F`, the “hERG current change (%, negative = inhibition) at 10uM” value was -41.2%.

For `O=c1n(-c2ccccc2)c(=O)n(Cc2ccccn2)n1Cc1ccccn1`, the “hERG current change (%, negative = inhibition) at 10uM” value is 3.02%.

Take `COc1ccccc1CC(=O)N1CCN(CCc2ccccc2)CC1`: the “hERG current change (%, negative = inhibition) at 10uM” value was -23.1%.

Take `Cc1ccc(CNc2nc(Cl)c(C#N)s2)cc1`: the “hERG current change (%, negative = inhibition) at 10uM” value is reported as -7.26%.

As to `COc1cc(C2N=C(c3ccccc3)NO2)cc(Br)c1O` (stereo not drawn), the “hERG current change (%, negative = inhibition) at 10uM” value was -5.13%.

With `CCN(Cc1ccccc1)C(=O)c1cc2c(OC)c(OC)c(OC)cc2[nH]1`, the “hERG current change (%, negative = inhibition) at 10uM” value was -1.92%.

For the molecule `COCCN=c1scc(-c2cc(OC)c(OC)c(OC)c2)n1/N=C/c1c(C)[nH]c2ccccc12`, the “hERG current change (%, negative = inhibition) at 10uM” value worked out at 10.2%.

For the molecule `Cc1nc(C(=O)N(C)C)nn1-c1cc(Cl)cc(Cl)c1`, the “hERG current change (%, negative = inhibition) at 10uM” value is given as -2.06%.

Consider `COc1ccc(C(=O)N/C(=C\c2cn(C)c3ccccc23)C(=O)N2CCN(C)CC2)cc1`, for which the “hERG current change (%, negative = inhibition) at 10uM” value is on record as -7.61%.

`Cc1cc(Nc2cccc(C)c2C)n2ncnc2n1`: the “hERG current change (%, negative = inhibition) at 10uM” value is reported as 9.53%.

Regarding `COc1ccc(C(C)=O)cc1CSc1nnc(Nc2ccccc2)s1`, the “hERG current change (%, negative = inhibition) at 10uM” value was determined as 0.366%.
